The whole screen tested about 150,000 compounds, of which about 540 (0.36%) showed an effect of 50% or more. This is one part of the list.
System: Plasmodium falciparum
Experiment: Primary screen in NF54 nanoGlo assay, in single point, at 2uM, 72h; a lower Z score goes with more inhibition
Format: functional, Erythrocyte
Settings: timepoint 72 hour

Compound | % Inhibition [%] | Z score
CC(=O)N1CCCN(c2nc(N)ncc2C)CC1 | -3 | 0.68
CC(=O)c1csc(NC(=O)[C@@]2(C)CC2(Cl)Cl)n1 | 5 | -0.81
COC[C@H]1CCCN(S(=O)(=O)N2CCCN(C3CCCCC3)CC2)C1 | -2 | 0.38
FC(F)(F)c1nnc(NCc2ccc(Cn3cccn3)cc2)s1 | -2 | 0.35
COC(=O)N1CCc2ccc(F)cc2[C@@H]1C(=O)Nc1ccccc1C | -3 | 0.53
CCCNC(=O)CCC(=O)NC(c1cccs1)c1cccs1 | -1 | 0.2
C[C@H]1CN(S(=O)(=O)c2ccc(NC(=O)c3cc(-c4ccccc4)on3)cc2)c2ccccc2O1 | 0 | -0.03
O=C1CN(C2CC2)Cc2cccc(c2)Oc2cccc(c2)CO[C@H]2CN(C(=O)CCn3cncn3)C[C@@H]2N1 | -7 | 1.29
CCc1cccc(OC2CN(c3cc(C(=O)NC4CC4)ccn3)C2)c1 | -10 | 2.03
COc1ccc(CN2C[C@H]3CC[C@@H](C2)N(CC=C(C)C)C3)cc1CN(C)C | -17 | 1.87
Cc1ccc(CN(CCO)C(=O)c2cc3cccn3cn2)o1 | -2 | 0.33
CCn1ncc(-c2ccccc2OCc2ccccc2)c1C(=O)O | 1 | -0.21
CCOc1ccc(-c2c[nH]c([C@H]3CCOC3)n2)cc1OCC | -16 | 2.2
Cc1ccc(CC(=O)N(CCc2ccc(F)cc2)C2CCCC2)cn1 | -8 | 1.32
Cc1ccc(CN2CCN(Cc3ccccn3)[C@H]3CS(=O)(=O)C[C@H]32)cc1 | -9 | 0.84
Cc1cc(C(=O)NCCCN2CCCC2=O)c(-c2ccccc2)o1 | -7 | 0.76
Cc1cc(C(=O)NC[C@H]2CCCN(c3cc(O)ncn3)C2)cc(C)n1 | 6 | -0.64
CCc1cnc(C)nc1N1CCC(N[C@@H](C)c2n[nH]c(C)n2)CC1 | -3 | 0.44
Cc1ccc(C)c([C@@H]2CCCN2C(=O)CCc2cncn2C)c1 | -7 | 0.85
Cc1cncc(C(=O)NC[C@@H](CO)Cc2ccc(Cl)cc2)c1 | -7 | 0.93
Cn1cnc2c(C(=O)NCc3cccc(F)c3)nn(-c3ccc(Cl)cc3)c2c1=O | -3 | 0.32
Nc1c(-c2ccccn2)nsc1C(=O)N1CCCCC1 | -15 | 2.61
N#CCCn1cc(C(=O)O)c(-c2cccc3ccccc23)n1 | -4 | 0.61
